# According to the supplement of paper PMC8728848:
# The list shows a part of the results.
# B1: SP16664B-bot-474-25-474 (Bacteroides ovatus) (protein)
# chain: CEEDIEIGNKIDESSYLASTQLSGLLLDENTNKNSSVIELRNNEYSTNVVFRLSKLPQKGVDVQIAVEESYAAIYNTIHETDFEVFPAANVKIANNGTFVLAPDDKVTPSVKVTLTAFDGMEEDKTYIVPLTVTSSTEGVTFTETSKHMVLLVQDYRNKPNTNKGEDAVQTVLYFEVNDTNPLNALEFLTESGKYFFDHIVLFAANINWDPEKQRVYLANNENVQFLLDNNDKYLQPLRKAGMKIIISILGNHDEAGVAQLSDMGAREFARELAAYCRAYNLDGVAFDDEYSNSPDLSNPWLASPSAYAGSRLMYECKAVMPEKIVSLYNLGNMYSSSLQVIDGIEPGQYCDYAVADYGGAAGPGTGMTLKQCAGMSIELRRGSGNSSESTARSRKEAGYGYYMFFALDPSLYGSQVYRCQSVCKGLYDETLVYPSYYYKKNSTEREAIN
# Experiments:
# Assay in all cases: glycan array binding signal (z-score within array); higher = stronger binding
# Conditions in all cases: glycan notation: IUPAC condensed, linker removed
# [1] = molecular target: Neu5Gc(a2-8)Neu5Gc(a2-3)Gal(b1-4)GlcNAc(b1-3)Gal(b1-4)GlcNAc
# In short: (§1)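 Negative Z-scores can be read as non-binding. The Z-score is calculated within each array and then averaged across arrays of one protein sequence at different concentrations or buffers and across linkers. Arrays, 3228 in all, were curated from the Consortium for Functional Glycomics database and kept only where the protein sequence was available.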
# [2] = molecular target: Neu5Gc(a2-8)Neu5Gc(a2-6)Gal(b1-4)GlcNAc
# In short: as §1
# [3] = molecular target: Neu5Gc(b2-6)Gal(b1-4)GlcNAc
# In short: as §1
binder,measurement,setting,value
B1,glycan array binding signal (z-score),[1],-0.622
same,glycan array binding signal (z-score),[2],0.231
same,glycan array binding signal (z-score),[3],0.041
